According to patent US9120851B2, “Human antibodies to human angiopoietin-like protein 4” (Regeneron Pharmaceuticals, Inc., priority 2009, dated 2015):

Experiments:
[1] = Pharmacokinetic clearance in wild-type and hANGPTL4(+/+) mice, sandwich ELISA; type: in vivo, mouse
Method: Pharmacokinetic clearance rates of anti-hANGPTL4 antibodies H4H268P2 and H4H284P were determined in wild-type mice and in transgenic mice expressing human ANGPTL4 [hANGPTL4(+/+) mice]. The strain background for both wild-type and transgenic mice was C57BL6 (75%) and 129Sv (25%). Separate cohorts consisting of 5 mice each of either wild-type or hANGPTL4(+/+) mice received subcutaneously (s.c.) 1 mg/kg of H4H268P2, H4H284P, or an isotype-matched (hIgG4) control with irrelevant specificity. Blood samples were collected at 0 hour, 6 hours, 1 day, 2 days, 3 days, 4 days, 7 days, 10 days, and 15 days, 22 days, and 30 days after the injection. Serum levels of human antibodies were determined by a sandwich ELISA. Briefly, a goat polyclonal anti-human IgG (Fc-specific) capture antibody (Jackson ImmunoResearch, PA) was coated in 96-well plates at a concentration of 1 μg/mL and incubated overnight at 4° C. After the plates were blocked with BSA, serum samples in a six-point serial dilution and reference standards of the respective antibody in a twelve-point serial dilution were added to the plate and incubated for one hour at room temperature. After washing with a suitable washing buffer, captured human antibodies were detected using the same goat polyclonal anti-human IgG (Fc-specific) antibody conjugated with horse radish peroxidase (HRP) (Jackson ImmunoResearch, PA) and developed by standard colorimetric response using tetramethylbenzidine (TMB) substrate, measuring absorbance at 450 nm in a plate reader. Concentrations of human antibodies in serum were determined using the reference standard curve generated for the same sample plate.

humanized ANGPTL4 mice = test: Serum TG levels in humanized ANGPTL4 mice; type: in vivo, mouse; details: for Serum TG: mean±SEM
Method: The effect of anti-hANGPTL4 antibodies H1H268P and H1H284P on serum TG levels was determined in mice expressing the ANGPTL4 protein containing the human N-terminal coil-coil region (“humanized ANGPTL4 mice”). The humanized ANGPTL4 mouse was made by replacing first three exons of the mouse Angptl4 gene (the N terminal coil-coil region) with the corresponding human N-terminal coil-coil ANGPLT4 sequence in C57BL6/129 (F1H4) embryonic stem cells. After germ line transmission was established, heterozygous mice (ANGPTL4hum/+) were bred together to generate homozygous mice [ANGPTL4hum/hum or hANGPTL4(+/+)] on a C57BL6 background. Humanized ANGPTL4 mice were pre-bled 7 days before (day −7) the experiment and put into groups of six mice each for each antibody tested. Antibodies (H1H268P, H1H284P and isotype-matched (hIgG1) control with no known cross-reactivity to mouse antigens) were administered at 10 mg/kg dose by subcutaneous injection. Mice were bled after 4 hours of fasting at days 1, 4, 7 and 11 after antibody injection; and serum TG levels were determined by ADVIA® 1800 Chemistry System (Siemens). Average TG levels were calculated for each time point for each antibody.
The effect of anti-hANGPTL4 antibodies, H4H268P2 and H4H284P, on serum TG levels was determined in humanized ANGPTL4 mice. Humanized ANGPTL4 mice were pre-bled 7 days before the experiment and put into groups of six mice each for each antibody tested. Antibodies (H4H268P2, H4H284P and isotype-matched (hIgG4) control with no known cross-reactivity to mouse antigens) were administered at 10 mg/kg dose by subcutaneous injection. Mice were bled after 4 hours of fasting at days 1, 4, 7 and 11 after antibody injection; and TG levels were determined in the serum by ADVIA® 1800 Chemistry System (Siemens). Average TG levels were calculated for each time point for each antibody.

[2] = tested on: obese rhesus monkeys (Macaca mulatta); test: Phase I pilot PK/PD study in obese rhesus monkeys; type: in vivo, rhesus monkey (Macaca mulatta); details: 10 mg/kg IV, any time point after infusion
Method: Phase I: In a pilot non-GLP pharmacokinetics/pharmacodynamic (PK/PD) study, H4H268P2 and H4H284P were administered as a single bolus intravenous (IV) injection, to obese rhesus monkeys (Macaca mulatta). Rhesus monkeys were selected because this species is closely related, both phylogenically and physiologically, to humans and is a species commonly used for nonclinical toxicity evaluations. Obese monkeys that had been on a high fat diet for greater than 6 months were selected because they typically display moderately elevated TG levels (i.e., mean >100 mg/dL; hyper-TG). Eight confirmed healthy, male monkeys were acclimated and assigned to the study for baseline assessment for 7 days prior to dosing. All animals received a vehicle (10 mM histidine, pH 6) IV infusion on Day −5, after which four of them received H4H268P2 and another four H4H284P at 10 mg/kg IV on day 0.
Serum samples were collected from the baseline period through day 35 post-dosing and assessed for serum lipid levels by ADVIA® 1800 Chemistry System (Siemens). The average baseline for each animal was determined based on the samples taken on Days −7, −5 and 0. […] Thus the data analysis was done with 3 animals in each group. Percent (%) changes of serum TG levels from the baseline were determined for each animal and averaged for each Ab group.

B1: H4H284P: H1H284P converted to hIgG4 isotype (constant region SEQ ID NO:483, S108P hinge mutation) (antibody)
heavy: QVQLVESGGGVVQPGRSLRLSCAASGFTFSSYGMHWVRQAPGKGLEWMAVISFDGGNKNNADSVKGRFTISRDNSKNTLYLQMNSLRAEDTAVYYCAKEGDRSGHPYFYYYGLDVWGQGTTVTVSASTKGPSVFPLAPCSRSTSESTAALGCLVKDYFPEPVTVSWNSGALTSGVHTFPAVLQSSGLYSLSSVVTVPSSSLGTKTYTCNVDHKPSNTKVDKRV[human IgG4 Fc with S228P (EU numbers) not printed]
VL: DIQLTQSPSFLSASVGDRVTITCWASQGISSYLAWYQQKPGKAPKLLIYAASTLQSGVPSRFSGSGSETEFTLTISSLQPEDFATYYCQQLHSYPLTFGGGTKVEIK
Q: Which Cmax ([1]; Wild-type mice, 1 mg/kg s.c.) does the source give for B1 here?
A: The Cmax was 15700 ng/mL.

Q: What about the “30-day AUC, fold less than that for H4H268P2” value ([1]; hANGPTL4(+/+) mice) of the same molecule?
A: The value was “about 5 fold”.

Q: What about the Cmax ([1]; hANGPTL4(+/+) mice, 1 mg/kg s.c.) of the same molecule?
A: Its Cmax is 5860 ng/mL.

Q: And the AUC ([1]; hANGPTL4(+/+) mice, 1 mg/kg s.c., over the 30-day period)?
A: Its AUC is 7600 ng·h/mL.

Q: What about the “Serum TG” value (humanized ANGPTL4 mice; day 1 after injection, 10 mg/kg s.c., 4 h fasting) of the same molecule?
A: The value was 86 ± 8.6 mg/dL.

Q: And the “reduction in circulating TG compared to isotype-matched control antibody, in words” value (humanized ANGPTL4 mice; day 4, 10 mg/kg s.c.)?
A: Its value is “significant reduction”.

Q: What about the “Serum TG” value (humanized ANGPTL4 mice; day 4 after injection, 10 mg/kg s.c., 4 h fasting) of the same molecule?
A: The value was 69 ± 6.4 mg/dL.

Q: What about the “Serum TG” value (humanized ANGPTL4 mice; day 7 after injection, 10 mg/kg s.c., 4 h fasting) of the same molecule?
A: The value was 71 ± 11 mg/dL.

Q: And the “Serum TG” value (humanized ANGPTL4 mice; day 11 after injection, 10 mg/kg s.c., 4 h fasting)?
A: Its value is 83 ± 7.3 mg/dL.

Q: And the “Serum TG” value (humanized ANGPTL4 mice; day −7 (pre-bleed))?
A: Its value is 103 ± 8.0 mg/dL.

Q: And the “injection site reactions or other adverse effects” value [2]?
A: The value was “No injection site reactions or other adverse effects were observed”.
